Results as given in PubChem BioAssay AID1240 (Sanford-Burnham Center for Chemical Genomics, 2008).
Out of some 50,000 compounds screened, about 800 (1.6%) showed an effect of 50% or more. Some of the results follow.

biological target: Bcl-2-like protein 10 (Homo sapiens) (UniProt Q9HD36); experiment: TR3 peptide-Bcl-B binding displacers, biochemical primary FP assay, phenotype converters (AID 1240); conditions: GST-Bcl-B / FITC-TR3 peptide fluorescence polarization; stronger effect = higher value; compound at 3.75 mg/L;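 also: 0% = Bcl-B with tracer peptide and DMSO and 100% = tracer peptide lacking Bcl-B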
UniProt Q9HD36, sequence (Q9HD36 whole entry, looked up): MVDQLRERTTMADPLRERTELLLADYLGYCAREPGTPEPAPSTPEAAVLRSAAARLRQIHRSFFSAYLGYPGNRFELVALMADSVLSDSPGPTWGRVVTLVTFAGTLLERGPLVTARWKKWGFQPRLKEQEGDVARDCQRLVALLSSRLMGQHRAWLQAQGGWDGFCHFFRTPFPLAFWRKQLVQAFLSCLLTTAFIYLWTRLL

| Structure (SMILES) | displacement [%] |
| --- | --- |
| COc1ccccc1/C=C1/SC(=O)N(CNc2ccc(F)cc2)C1=O | 4.5 |
| O=C(O)/C=C/c1cc(C(=O)O)c(/C=C/C(=O)O)cc1C(=O)O | -2.6 |
| CCOc1ccc(NC(=S)NC(=O)c2ccc(F)cc2)c([N+](=O)[O-])c1 | 13.3 |
| NS(=O)(=O)c1ccc(CNS(=O)(=O)Cc2ccccc2)cc1 | -2.9 |
| CC(=O)n1cc(C2C(=O)CC(C)(C)CC2=O)c2ccccc21 | -6.8 |
| Cc1ccc(C(C)C)c(OCc2nnc(NC(=O)c3ccc(Br)cc3)s2)c1 | -16.7 |
| CCc1ccc(OCC(=O)Nc2c(C)ccc3nsnc23)cc1 | 10 |
| O=C(c1ccccc1)c1ccc(N=Cc2ccc([N+](=O)[O-])s2)cc1 | 8.8 |
| CC(=O)N1CCN(c2ccc(NC(=O)c3sc4ccccc4c3Cl)cc2)CC1 | 0.7 |
| COc1cccc(C(=O)Nc2nnc(-c3ccc([N+](=O)[O-])cc3)s2)c1 | 1.8 |
| CCCOc1ccc(/C=N/Nc2nc(-c3ccccc3)nc(C)c2C)c(O)c1 | -14 |
| C=CCc1cccc(/C=N/N=C2/NC(=O)CS2)c1O | -5.7 |
| COc1ccc(OC)c(N2C(=O)c3cccc4cccc(c34)C2=O)c1 | -11.3 |
| COC(=O)c1ccc(C(=O)Nc2cc(Cl)ccc2Cl)cc1N=NC1=C(O)CC(C)(C)CC1=O | 16.9 |
| CCC(CC)NCc1cccc([N+](=O)[O-])c1 | 1.5 |
| CCOc1cccc2c1N(C(=O)Cc1ccccc1)C(C)(C)c1ssc(=S)c1-2 | 13.7 |
| Cc1ccc(-c2ccc(OCC(=O)Nc3ccc(F)cc3)cc2)cc1 | -5.8 |
| O=C(/C=C/c1cccc([N+](=O)[O-])c1)Nc1cc(C(F)(F)F)cc(C(F)(F)F)c1 | -9.7 |
| CN1C(=O)/C(=N/OC(=O)c2ccccc2F)c2ccccc21 | 2.5 |
| COc1ccc(C2Nc3ccc(Br)cc3C(c3ccccc3)N2CC(=O)O)cc1 (configuration not stated) | 21.2 |
| COc1ccc(NC(=O)CCc2ccccc2)c(OC)c1 | 4.6 |
| Cc1cc(C)cc(OCC(=O)NNC(=O)CN2C(=O)c3ccccc3C2=O)c1 | -1.6 |
| CCOCCOC(=O)c1cccc(NC(=O)C(C(C)C)N2C(=O)c3ccccc3C2=O)c1 (configuration not stated) | 1.1 |

| Structure (SMILES) | displacement [%] |
| --- | --- |
| COc1ccc(C2CC(c3cccs3)=NN2C(=O)CCC(=O)O)cc1 (configuration not stated) | 6.9 |
| COc1ccc(Cc2cnc(NC(=O)c3ccccc3Cl)s2)cc1 | 7.9 |
| NC(=O)C1CCN(C(=O)CCc2ccccc2)CC1 | 3.2 |
| CC1=NN(c2cccc(C(=O)O)c2)C(=O)/C1=C\c1ccc(N(C)C)c(Br)c1 | 4.5 |
| Cc1ccccc1N1C(=O)CC(SC2=NCCS2)C1=O (configuration not stated) | 15.9 |
| COc1cccc(CN2CCN(C(=O)c3cccc(OC)c3OC)CC2)c1 | -1.6 |
| CCN(CC)CCCCCCOc1ccc(Cl)cc1 | -9.3 |
| O=[N+]([O-])c1ccc(N2CCOCC2)cc1NCCCO | 7.9 |
| Clc1ccccc1CN1CCN(N=Cc2cccc(Cl)c2Cl)CC1 | 8 |
| O=C1C(=O)N(Cc2ccccc2)C(c2ccc(Cl)cc2)/C1=C(/O)c1ccccc1 (configuration not stated) | 5.5 |
| CCOc1ccccc1NC(=O)c1ccc(CN(c2ccccc2)S(C)(=O)=O)cc1 | 6.6 |
| CCc1ccccc1NC(=O)c1ccc(CN2CCc3ccccc3C2)cc1 | 0.8 |
| O=C(c1ccccc1Cl)N1CCN(c2ccccn2)CC1 | -8.7 |
| Cc1cccc(/C(N)=N/OC(=O)c2ccc(Cl)cc2Cl)c1 | 2.7 |
| CCc1ccc(C2(c3ccc(CC)cc3)CC2C(=O)Nc2nccs2)cc1 (configuration not stated) | -15 |
| CC(C)c1ccc2c(c1)c1c3n2CCNC3CCC1 (configuration not stated) | 18.1 |
| COc1cccc(NC(=O)CSc2nc3ccc(OC)cc3[nH]2)c1 | -9.1 |
| CC(=O)N(CCC1(Cc2ccccc2)CCOC(C)(C)C1)Cc1ccccc1 (configuration not stated) | 7.8 |
| O=C(O)/C=C/c1ccc(-c2ccccc2Br)o1 | -2.2 |
| O=C(c1cc2nc(-c3cccs3)cc(C(F)(F)F)n2n1)N1CCOCC1 | -10.7 |
| COc1ccc(Cl)cc1C(=O)Nc1ccc2c3c(cccc13)CC2 | 38.5 |
| CCCOC(=O)c1ccc(NC(=O)COc2ccc(C(C)C)cc2)cc1 | 7.1 |
| O=c1oc(-c2ccco2)cc(-c2ccccc2)c1-c1ccccc1 | 7.1 |

| Structure (SMILES) | displacement [%] |
| --- | --- |
| Cc1cc(=O)oc2cc(OC(=O)c3ccccc3)cc(OC(=O)c3ccccc3)c12 | 5.4 |
| COc1ccc(CCNC(=O)Cc2ccccc2)cc1 | -15.3 |
| COc1ccc(OCCOCCOc2ccc(OC)cc2)cc1 | 3.9 |
| O=C1CSC(=S)N1NS(=O)(=O)c1ccccc1 | -21.9 |
| COc1cc(/C=C2/SC(=S)N(Cc3ccccc3)C2=O)ccc1OC(=O)c1cccs1 | 16.4 |
| N#Cc1c(SCC(=O)c2ccc(Cl)cc2)nc2c(c1-c1ccco1)CCCC2 | 14 |
| O=C(COc1ccc([N+](=O)[O-])cc1)Nc1cc(C(F)(F)F)ccc1Cl | -7.9 |
| O=C(/C=C/c1ccccc1Cl)Nc1cccc(Br)c1 | 16.3 |
| CC(=O)C(C(=O)c1ccccc1)C(=O)c1ccccc1 | -1.1 |
| CC(C)C(=O)Nc1ccc(N2CCOCC2)cc1 | 0.5 |
| COc1ccc(Cl)cc1NC(=O)c1cnn2c1NC(c1cccs1)CC2C(F)(F)F (configuration not stated) | 8.3 |
| CCSC(=S)Nc1c(C)n(C)n(-c2ccccc2)c1=O | 4.6 |
| O=C(NN1C(=O)c2ccc([N+](=O)[O-])cc2C1=O)c1cccnc1 | 1.5 |
| N#CC(C#N)=CNc1ccc([N+](=O)[O-])cc1 | -12.3 |
| Cc1ccc(/C=C2\SC(=S)N(CCC(=O)Nc3cccc(O)c3)C2=O)cc1 | -0.2 |
| OC(COc1ccccc1)CN1CCCCCC1 (configuration not stated) | -5.9 |
| COc1cccc(/C=C2/SC(=O)N(CN3CCCCC3)C2=O)c1 | -3.9 |
| Cc1cccc(NC(=O)/C=C/c2ccc(Cl)cc2)c1 | 19.1 |
| COc1ccc(/C=C2\C=C(c3ccc(Br)cc3)OC2=O)c(C)c1 | 2.4 |
| O=C1CC(c2ccc3c(c2)OCO3)c2cc(Br)c3ccccc3c2N1 (configuration not stated) | 1 |
| CC(=O)CCc1c(C)nc2c(C)cccc2c1Cl | -0.6 |
| COC(=O)c1c(NC(=O)c2ccccc2[N+](=O)[O-])sc(Cc2ccccc2)c1C | -11.9 |
| O=C(C(C(=O)N1CCOCC1)C12CC3CC(CC(C3)C1)C2)N1CCOCC1 | 3.3 |

| Structure (SMILES) | displacement [%] |
| --- | --- |
| CC(C)OC(=O)c1c(-c2ccc(C(C)C)cc2)csc1N | 3.8 |
| COC(=O)c1ccccc1NC(=O)c1cc([N+](=O)[O-])ccc1Cl | 10.5 |
| O=C(Nc1ccc(Br)cc1)C1C(c2ccccc2)=C1c1ccccc1 | -6.7 |
| O=C(Nc1ccc(I)cc1)N1CCOCC1 | 0.8 |
| COc1ccc(CCC(=O)Nc2cc(Cl)cc(Cl)c2)cc1 | 0.3 |
| CS(=O)(=O)N(CC(=O)Nc1ccccc1C(F)(F)F)c1cccc(Cl)c1 | 3.9 |
| O=[N+]([O-])C1=CC(=[N+]([O-])[O-])C=CC12N(Cc1ccccc1)C1=CC=CC=CC1=[N+]2Cc1ccccc1 (configuration not stated) | 15 |
| O=C(COc1cccc(Cl)c1)NCc1ccccc1 | -4.4 |
| O=C(Nc1cccc(Cl)c1)c1ccccc1Br | 6.5 |
| CCc1cc2c(C)cc(=O)oc2cc1OC(C)=O | 10.1 |
| O=C(CSC1=NCCS1)Nc1cccc(C(F)(F)F)c1 | -2.1 |
| CCOC(=O)c1c(NC(=O)c2ccc(OC)cc2)sc(C(=O)Nc2cc(C(F)(F)F)ccc2Cl)c1C | 7.6 |
| CC(=O)Oc1ccc(C(=O)Nc2cccc(-c3nnc(-c4ccccc4)o3)c2)cc1 | 8.4 |
| Cn1cccc1CC(=O)N/N=C/c1ccccn1 | -20.8 |
| CCOC(=O)N1CCN(c2cc(N3CCOCC3)c(F)cc2[N+](=O)[O-])CC1 | -4.2 |
| O=C1CC(NCc2ccco2)C(=O)N1CCc1ccccc1 (configuration not stated) | 7.3 |
| CCOC(=O)C1(C(=O)O)NC(=O)CC1c1ccccc1 (configuration not stated) | 7.8 |
| NC1=NC(=O)/C(=C/c2ccc(OC(=O)c3ccc(Cl)c(Cl)c3)cc2)S1 | -11.9 |
| O=C(Nc1nc2ccc(Br)cc2s1)c1ccc(S(=O)(=O)N2CCCCC2)cc1 | -6.7 |
| N/C(=N/N=C\c1cccc(O)c1)c1ccccn1 | -14.6 |
| COC(=O)CNS(=O)(=O)c1ccc(OC)cc1 | 12 |
| O=C(NCCN1CCOCC1)c1c(Cl)cccc1Cl | -10 |
| Cc1cc(C)nc(NS(=O)(=O)c2ccc(Nc3nc(-c4sc(N)nc4C)cs3)cc2)n1 | -3.8 |

| Structure (SMILES) | displacement [%] |
| --- | --- |
| CCCCN(CCCC)CCNC(=O)C(=O)NCc1ccccc1 | -12.6 |
| Cc1cccc(C(=O)NNC(=O)C2CCCO2)c1 (configuration not stated) | -9.2 |
| C=CCOc1ccc2c(C(F)(F)F)cc(=O)oc2c1 | 1.4 |
| c1ccc(-n2nnnc2SCc2nc3ccccc3[nH]2)cc1 | 3.8 |
| Cc1ccc(S(=O)(=O)Nc2ccccc2-c2nc3ccccc3c(=O)[nH]2)cc1 | 1.4 |
| O=C(Nc1ccc(NC(=O)c2ccc(Br)cc2)cc1)c1ccc(Cl)cc1 | 0.1 |
| CC(C)N(Cc1ccccc1)C(=O)/C=C/c1cccc([N+](=O)[O-])c1 | 15.1 |
| O=C(Nc1ccccc1)N1CCc2ccccc2C1 | -0.6 |
| CC1=C(C(=O)OC(C)C)C(c2cc3c(cc2[N+](=O)[O-])OCO3)C2=C(CC(C)(C)CC2=O)N1 (configuration not stated) | -3.3 |
| COc1cccc(CN2CCN(Cc3cccc([N+](=O)[O-])c3)CC2)c1 | -6.6 |
| O=C(N=Nc1c(O)n(CN2CCCCC2)c2ccccc12)c1ccncc1 | -5.2 |
| COc1ccccc1NC(=O)c1oc2ccc(C)cc2c1C | -10.5 |
| O/N=C/c1ccc(OCc2ccc(Cl)c(Cl)c2)cc1 | -8.8 |
| O=C(CSCc1ccccc1)Nc1ccccc1Br | 13.8 |
| O=c1/c(=C/c2ccco2)sc2nnc(-c3ccccc3)n12 | 26.9 |
| O=C(Nc1ccccc1OC(F)(F)F)c1sc2ccccc2c1Cl | -0.6 |
| O=C(Cc1ccccc1)N1N=CCC1(O)c1ccccc1 (configuration not stated) | 2.1 |
| COc1ccc(NC(=O)C2CCCN(CCCc3ccccc3)C2)cc1OCC(C)C (configuration not stated) | -1.7 |
| COc1cccc(C2Nc3ccccc3NC3=C2C(=O)CC(c2ccccc2Cl)C3)c1OC (configuration not stated) | 18.2 |
| CCCCN(C(C)=O)c1ccc(C(=O)O)cc1 | 12 |
